This is an account of results in article PMC12136788.

Some of the results follow.

The labels stand for the following.
T1: UNK ZnF1-3 (human, UniProt Q9C0B0 31-174)
T1 sequence: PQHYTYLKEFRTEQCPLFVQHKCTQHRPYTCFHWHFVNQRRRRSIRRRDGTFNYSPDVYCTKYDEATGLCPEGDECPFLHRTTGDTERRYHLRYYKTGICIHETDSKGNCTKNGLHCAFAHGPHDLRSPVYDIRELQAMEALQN

B1: 31619300_31619420_303_3pUTR_ENSG00000169926_ENST00000307145|human|control|control (ssRNA)
RNA: GGGAGUUCUACAGUCCGACGAUCGCCAUGCUGCGGGCUGGGGCCGGCGGCGGUGCUCUUGCUGCGAGUCGUCAGCCGCGCAUCCGCACCCACGGCCUCGGGAGAGCGGGCGGGGGGCGGGGGCGCGGCGCGCCCUCUCCUCGGCAACAGAGGAUUGAGCAUCA
B2: chr8:104442852:104442853:+_ENSG00000164934_ENST00000297579|hu_hu|motif|central (ssRNA)
RNA: GGGAGUUCUACAGUCCGACGAUCUCUCAUAUCUAAGAUAACCUUUUUCAAAGGAGUAGCUUGCCUCAUAUCGUACAGUACGGUAUUCCUGUCAGAUGCACAACUUCCCAAGAGAAAUGUCUCAAUUGGGUUAAAUUUAACACUCAACAGAGGAUUGAGCAUCA
B3: 107480438_107480558_1777_3pUTR_ENSMUSG00000020721_ENSMUST00000106746|mouse|control|control (ssRNA)
RNA: GGGAGUUCUACAGUCCGACGAUCUUUUGUUUUUUCUUCAAUAGUAGCUUCAUAAACCUUCUCUUUGGUUCCCUGGGACUGAACGAGCUUCUCUUUAGGGACUGGUAAUAAAUAAACAGCAUUGACCCUGGUCAUCACCAGCCGCAACAGAGGAUUGAGCAUCA
B4: chr11:69466387:69466388:+_ENSG00000110092_ENST00000227507|hu_mus|motif|central (ssRNA)
RNA: GGGAGUUCUACAGUCCGACGAUCUUAAAAACAUAUAAAAGAAUCAAAACUCCUUCUCAAGACUUCCCCUGUGUUAAUCCGGCUCUUAGAACAGACAAGCACAUUAAUAGAAAACUAGUUGAUUACUGGGGUACAGAAUUCUAUCAACAGAGGAUUGAGCAUCA
B5: chr6:30681072:30681073:-_ENSG00000137337_ENST00000376406|hu_mus|FALSE|FALSE (ssRNA)
RNA: GGGAGUUCUACAGUCCGACGAUCAGAGGACUCCUCUACUCCUGGUUGCUGACCUUGUUCUUCAUCAGUGUCACUGCCCAAACCAAAGGGUGAAGAUGGCCCGGGGACACUUGGGGCCGGAGAAGAGACCUCUUCAUCACUUUCCAACAGAGGAUUGAGCAUCA
B6: chr13:55314627:55314628:+_ENSMUSG00000021488_ENSMUST00000099490|mus_mus|FALSE|FALSE (ssRNA)
RNA: GGGAGUUCUACAGUCCGACGAUCCUCAGAAAAAUUGGAUUGACCAUUACCGAAAGGGCUGUCCUUGUCUUCGGAGGCAUCUAAAUUCACCGGAUUAGAAAAGGACAGCAGACAAUUUCUUCUAGAUAAUUCACAAGUCCGAUCCAACAGAGGAUUGAGCAUCA

The target of the test is T1, UNK ZnF1-3. Put plainly: nsRBNS (natural sequence RNA bind-n-seq); RBNS binding buffer (assumed for nsRBNS): 25 mM Tris pH 7.5, 150 mM KCl, 3 mM MgCl2, 0.01% Triton X-100, 500 ug/ml BSA, 20 U/ml SUPERase-In, 4 C; UNK is unkempt and MSI1 is Musashi-1; names of the RNAs are library labels; protein concentration not given here; high values mean tight binding.
B1 gave a binding signal of 0 enrichment R. In turn, B2 gave a binding signal of 0.814 enrichment R.

In the case of B3, the binding signal was found to be 0.886 enrichment R. Molecule B4 yielded a binding signal of 2.28 enrichment R. In turn, B5 gave a binding signal of 1.09 enrichment R.

The molecule B6 gave a binding signal of 1.47 enrichment R.
